Reference: the supplement of paper PMC11417369
± gives the standard deviation of the averaged measurements. The list shows a part of the results.

What follows are sequences tested on PfAP2-G AP2 domain (GST-tagged) (assay: gcPBM binding intensity (ln(normalized median fluorescence intensity)); higher = stronger DNA binding).
In short: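 Binding intensity is the highest Masliner-normalised natural-log median intensity over replicate spots in either probe orientation. To obtain it, GST-tagged P. falciparum DNA-binding domains made in E. coli were incubated for 1 h on an Agilent 4 × 180k array of primer-extended double-stranded 36-bp intergenic genomic probes plus negative controls. Detection used Alexa488 anti-GST antibody with scanning at 488 nm.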

Row | Sequence | gcPBM binding intensity (ln)
1 | ATTTATTAAATTTATAGTACTCAAAGATTTTTATTT [XGTACX_site6661] | 11.2 ± 0.72
2 | AAATAAAACAATTAACGTACAAGCATATATATATAT [XGTACX_site8508] | 11.3 ± 0.99
3 | AAAAAAGCAATATGATGTACATTTACTTTGTGAAAG [XGTACX_site4450] | 10.9 ± 0.52
4 | TAAAAAAATAAAATTACACACATATATAAATATATA [CACACA_site2620] | 9.53 ± 0.15
5 | AAGGAAAACAATAGGTGTACCAAACGTCCTAGGAAC [XGTACX_site5732] | 11.2 ± 0.58
6 | TTTCTTCATTTTTTCACACATAAGAAAATATAATCA [CACACA_site4275] | 10.1 ± 0.32
7 | AATTTAAAAAAAATCACACACAGAAAAAAAAAAAAA [CACACA_site2322] | 9.83 ± 0.28
8 | ATATATGTTTTTATATGTACTTATAATGTGTGTATA [XGTACX_site5165] | 11.4 ± 0.93
9 | CTAGGTATGCTTTAAACATGCAAAAATACAAATTAC [TGCATGCA_site239] | 10.1 ± 0.28
10 | ATATATAAATATATTTGTACATATAATATGTATTAT [XGTACX_site8820] | 10.7 ± 0.4
11 | TTTTGTTATAATAAAGTGCATTTAGTCGGGTTACAA [GTGCAC_site9779] | 10.3 ± 0.4
12 | AAATATTATAAAAAGGTGCATTTTTATTATATGAGT | 10.1 ± 0.11
13 | TGAAGAGGAAACAAACAAAATGAATAATTAAAAAGG [CACACA_negctrl_site1601] | 9.905 ± 0.092
14 | TTCTGACCAATGCTATAAAATAATACAAAAGAAAAA [GTGCAC_negctrl_site3] | 10.4 ± 0.54
15 | TATATCCACATTTTTAGTACTTAAAAATAAATAAAC [XGTACX_site3826] | 11.2 ± 0.74
16 | GTATATATATATATATGCAAATGTATAAATCTACAT [CACACA_negctrl_site546] | 9.89 ± 0.057
17 | AAGAAAAAAATATATGTTTATTTACTTTAATAATTT [TGCATGCA_negctrl_site168] | 9.59 ± 0.24
18 | CTCAAAGGAATATTCACACATAAATTATAGACTACA [CACACA_site6050] | 9.8 ± 0.13
19 | TAATTATATTCACTTGCTATATAAATTATATATATT [CACACA_negctrl_site526] | 9.805 ± 0.092
20 | ATACACACTCAAAAAAGTACTTAACTACATGAATTG [XGTACX_site6366] | 11.4 ± 0.64
21 | TATATATAAATATGCTGTACGTTTTAATACGTTAAG [XGTACX_site2378] | 11.4 ± 0.95
22 | AAAAAAATAGTCTTCTTGCACTTTTTAATTTATTTT | 10 ± 0.014
23 | TTATAATAAAATGAATATATATAATTTAAAATATTT [CACACA_negctrl_site1651] | 9.56 ± 0.16

Row | Sequence | gcPBM binding intensity (ln)
24 | GATAAATTAAAACACACACACATATATATATATATA [CACACA_site3962] | 10.2 ± 0.69
25 | ATATTTATGAAGTTCACACATATATATATATATATA [CACACA_site5954] | 10.3 ± 0.56
26 | ACAACAATATTTGAATGTACTCTATTTTCGTTGTTC [XGTACX_site593] | 11.2 ± 0.7
27 | AAAAAAAGTTATATTACACACTTTATTCGTTAACTT [CACACA_site3013] | 9.895 ± 0.021
28 | AAAATGGTTTATAAATGTACATATATTATATATAAC [XGTACX_site7959] | 11.1 ± 0.64
29 | AATGATAATATTTCCTTCTTTTTTACTTCTTTCTTT [CACACA_negctrl_site776] | 9.72 ± 0.23
30 | TATAAAAAATAATACACACACATGGCGACAAAATAA [CACACA_site2420] | 10.4 ± 0.15
31 | TTTACTTTCCCAAGTTGTACTGCTTCTAAGCTTTTT [XGTACX_site2708] | 11.1 ± 0.69
32 | CCTATCCAGACATATACACACATATCTATTTATATA [CACACA_site5001] | 10.02 ± 0.014
33 | CATATAAAATAATTCACACAAATATACAAATACCCA [CACACA_site5340] | 10.2 ± 0.14
34 | TTTTTCAGAAAAGAAACACACATATATATATTTATA [CACACA_site2372] | 9.915 ± 0.007
35 | AAAAAAAATTTCTTCTGTACGCATAAATTTTTATTA [XGTACX_site8721] | 11.6 ± 1
36 | TATTTAATTTTTAAATGTACATATAAAATAATATAT [XGTACX_site2422] | 11.2 ± 0.89
37 | ATATAACATAGACACACACACATATAAATATATTAT [CACACA_site7865] | 10.2 ± 0.24
38 | ATATAAGATTTAAGAAGTACAATTATACAGTAGATC [XGTACX_site7501] | 11.4 ± 0.88
39 | CTTTATAAAATAAGAGTGCGTTATATTGAATTGTAT [GTGCAC_site9390] | 10.05 ± 0.064
40 | TATATTTGCAGTAATAATAATTATTATAAAAGATAA [XGTACX_negctrl_site547] | 9.95 ± 0.18
41 | TATGAATGGTTAAGTACACACATATTAAGATATGTA [CACACA_site5852] | 11.3 ± 0.93
42 | TTATTTATTTTAAATTCACACATCGTGCTATTATAT [CACACA_site5003] | 9.695 ± 0.007
43 | TCATATATTTATGTATGTACATATATATATAGATTA [XGTACX_site380] | 11.1 ± 0.61
44 | ACGTTTTATAATTAATGTACAAATATTAAAATTGCA [XGTACX_site7869] | 10.8 ± 0.54
45 | GAATAAATTAAAAATGCACACTTTGATGGGTACATT [CACACA_site5220] | 11.3 ± 0.88
